# Data published in PubChem BioAssay AID485344 (National Center for Advancing Translational Sciences (NCATS), 2010).
# Among all 340,000 compounds or so, about 6,900 (2%) were called active. No stated cut-off is given here; in the data, active means inhibition above about 30%; inactive means below that, where a call was filed. The list shows a part of the results, in another mix than the full data. The source gives no active or inactive call for entries shown without one.
# Molecular target: D(2) dopamine receptor (Homo sapiens) (UniProt P14416)
# Assay: HTS Assay for Allosteric Antagonists of the Human D2 Dopamine Receptor: Primary Screen for Antagonists; further: 0% is about no effect
# Settings: HEK293 TREx D2 cells, calcium flux, dopamine EC80; at 10 µM; stronger effect = higher value
# Outline: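 Compounds are added to dye-loaded, induced HEK293 T-REx cells coupled to calcium release via D2; after a 3 min kinetic read an EC80 dopamine stimulus is given and fluorescence is recorded for 3 more min.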
# UniProt P14416, sequence (P14416 whole entry, looked up): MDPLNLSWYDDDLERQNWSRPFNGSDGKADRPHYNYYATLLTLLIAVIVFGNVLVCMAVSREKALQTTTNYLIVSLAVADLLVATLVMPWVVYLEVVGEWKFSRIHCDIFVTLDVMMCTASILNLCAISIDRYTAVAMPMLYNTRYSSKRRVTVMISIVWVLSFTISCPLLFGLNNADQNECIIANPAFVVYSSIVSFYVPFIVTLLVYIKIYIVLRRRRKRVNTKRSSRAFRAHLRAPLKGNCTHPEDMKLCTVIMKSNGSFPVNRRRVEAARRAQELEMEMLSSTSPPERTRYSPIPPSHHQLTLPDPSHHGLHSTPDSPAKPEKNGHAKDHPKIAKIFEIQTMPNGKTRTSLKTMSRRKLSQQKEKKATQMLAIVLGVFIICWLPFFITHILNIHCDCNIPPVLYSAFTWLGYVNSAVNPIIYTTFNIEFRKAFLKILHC
row,SMILES,inhibition
1,COc1ccc(-c2nc(CS(=O)CC(=O)NCCc3ccccc3)c(C)o2)cc1OC (stereo unspecified),2.24%
2,Cc1ccc(CCNC(=O)c2sc3ncccc3c2-n2c(C)ccc2C)cc1,5.36%
3,CC1CCCCN1c1c(S(=O)(=O)c2ccc(Cl)cc2)cnc2ccccc12 (stereo unspecified),2.52%
4,CCC(=O)Nc1ccc(CC)cc1-c1nc2ccccc2n(CC(=O)Nc2cccc(OC)c2)c1=O,10.5%
5,COc1cccc(C2=CC(c3ccccc3F)n3ncc(C(=O)Nc4ccc(C)cc4)c3N2)c1 (stereo unspecified),1.05%
6,Cc1ccc(-n2nc(-c3ccc(F)cc3)c3cnc4cc5c(cc4c32)OCO5)cc1C,3.1%
7,COc1ccccc1-c1cc(C(=O)N/N=C/c2cccs2)c2ccccc2n1,active: 72.4%
8,Cc1ccc(Cl)cc1N1CCN(C(=O)CCSCc2ccccc2F)CC1,-13.6%
9,Cc1c(C(=O)Nc2ccc(Br)cc2F)oc2ccc(S(=O)(=O)N3CCC4(CC3)OCCO4)cc12,17.9%
10,CCc1ccc(-c2cc(C)no2)cc1S(=O)(=O)N1CCN(c2cccc(Cl)c2)CC1,6.74%
11,COc1ccc(NC(=O)c2oc3ccc(S(=O)(=O)N(C)C4CCCCC4)cc3c2C)cc1Cl,-24.8%
12,O=C(CCCc1nc(-c2ccco2)no1)Nc1ccccc1[N+](=O)[O-],4.43%
13,COc1cccc(-n2c(=O)c3c4c(sc3n(Cc3ccc(F)cc3Cl)c2=O)CCCC4)c1,18.7%
14,COc1ccc(C2=NN(C(C)=O)C(c3cn(-c4ccccc4)nc3-c3cccs3)C2)cc1 (stereo unspecified),8.69%
15,COc1ccc(-c2[nH]ncc2C(=O)NCc2cccc(F)c2)cc1,24.8%
16,CCC1CCCCN1S(=O)(=O)c1ccc(N2CCCCS2(=O)=O)cc1 (stereo unspecified),-3.21%
17,CC(=O)Nc1c(C(=O)Nc2cccc(C)c2)nnn1-c1ccc(C)cc1,14.5%
18,CCOC(=O)c1ccc(NC(=O)c2c(C)oc3nc(C)nc(N4CCCC4)c23)cc1,4.66%
19,Cn1c(=O)c2c(SCC(=O)NCc3ccco3)nc(-c3ccccc3F)nc2n(C)c1=O,-10.5%
20,CC(C)N1CC(COc2ccc(Br)cc2)OC1=O (stereo unspecified),active: 41.2%
21,Cc1ccc(NC(=O)Nc2cc3c(cc2N2CCCCC2)n(C)c(=O)n3C)cc1Cl,-10.9%

row,SMILES,inhibition
1,COc1ccc(NC(=O)CC2C(=O)N(c3ccccc3)C(=O)N2Cc2cccnc2)cc1 (stereo unspecified),3.42%
2,Cc1ccc(CN(C(=O)c2ccccc2Br)C2CCS(=O)(=O)C2)o1 (stereo unspecified),2.88%
3,O=C(Nc1ccc2oc(-c3ccc4ccccc4c3)nc2c1)c1cc(Br)ccc1Cl,10.5%
4,O=C(NCc1ccc(Cl)cc1)C(=O)Nc1cccc(Br)c1,7.09%
5,CC1CCC(NC(=O)c2ccc3c(c2)N(Cc2cccc(Cl)c2)C(=O)c2ccccc2S3=O)CC1 (stereo unspecified),-0.641%
6,O=C(Nc1ccccc1)c1cccc(N2C(=O)C3C4C=CC(C5CC45)C3C2=O)c1 (stereo unspecified),active: 32.4%
7,CCN(CC)C(=O)c1sc(NC(=O)C2c3ccccc3Oc3ccccc32)c(C(=O)OC(C)C)c1C,-15.7%
8,Cc1cc(C)c(Cn2c(=O)n(CCCCCC(=O)NCc3ccc4c(c3)OCO4)c(=O)c3sccc32)c(C)c1,-8.99%
9,O=C(CSCc1ccc(F)cc1)N1CCN(c2ccccc2)CC1,2.97%
10,CN(C)c1ccc(C(CNS(=O)(=O)c2cc(F)ccc2F)N2CCOCC2)cc1 (stereo unspecified),-2.71%
11,COc1cccc(NC(=O)Cn2c(=O)n(-c3cccc(OC)c3)c(=O)c3c4c(sc32)CCCC4)c1,-22.8%
12,CCOc1ccc(Nc2nc3ccccc3c3nnc(CC)n23)cc1,9.61%
13,COc1ccc(NS(=O)(=O)c2ccc3[nH]c4c(c3c2)CCCC4)c(OC)c1,6.2%
14,O=C(Nc1ccon1)Nc1ccc(F)cc1F,active: 31.4%
15,Cc1cccc(-c2noc(-c3ccc(N4CCCC4)c([N+](=O)[O-])c3)n2)c1,7.98%
16,COc1ccc(NC(=O)C2CCN(S(=O)(=O)c3c(C)noc3/C=C/c3ccco3)CC2)cc1,23.4%
17,Cc1cc(CN2CCCC(C(=O)Nc3cccc(-n4cccn4)c3)C2)cc(C)c1O (stereo unspecified),active: 38%
18,CCC(=O)N1CCc2cc(CNC(=O)Nc3ccc(OC)cc3OC)ccc21,19.8%
19,O=C(NCCc1ccccc1)C(=O)NCC(c1cccnc1)N1CCN(c2ccc(F)cc2)CC1 (stereo unspecified),13%
20,COc1ccccc1-c1cc(C(F)(F)F)nc(S(=O)(=O)CCCC(=O)Nc2cc(Br)ccc2O)n1,-1.53%
21,c1ccc(CNCC2COc3ccccc3O2)cc1 (stereo unspecified),active: 61.9%

row,SMILES,inhibition
1,CCc1ccc(C2C(C(=O)Nc3ccccc3)=C(C)Nc3nc(SCC(=O)c4ccc(C)cc4)nn32)cc1 (stereo unspecified),2.34%
2,COc1ccc(NC(=O)c2cnc(SCC(=O)Nc3nc4ccc(C)cc4s3)n(C)c2=O)cc1,-25.1%
3,CC(=O)c1ccc(NC(=O)Cn2c3ncccc3c(=O)n2-c2ccc(C)cc2)cc1,8.39%
4,O=C(NC1CCN(Cc2cccc([N+](=O)[O-])c2)CC1)c1ccccc1,active: 74.3%
5,Cc1cccc(C(=O)NCC(c2ccc3c(c2)OCO3)N2CCOCC2)c1 (stereo unspecified),17.9%
6,Cc1ccc(-c2noc(CSc3nnc(-c4ccc(Cl)cc4)n3C)n2)cc1,12.8%
7,O=C(c1ccco1)c1cn(CCOc2ccc(Cl)cc2)c2ccccc12,8.29%
8,CC(=O)C(C)Oc1ncn(-c2ccccc2)n1 (stereo unspecified),active: 33.4%
9,O=C(c1cccs1)N1CCCc2cc(NS(=O)(=O)c3ccc(Cl)cc3)ccc21,13.1%
10,COc1ccc(C(CNC(=O)c2ccc(C)cc2)N2CCOCC2)cc1 (stereo unspecified),-25.9%
11,O=C(CSc1nncs1)NC1CCCCCCC1,active: 31.5%
12,COc1cccc(C(=O)CN2CCN(S(=O)(=O)c3ccc(Cl)cc3)CC2)c1,9.25%
13,COc1cc2ccccc2cc1C(=O)Nc1ccc2oc(-c3cc(Br)ccc3Cl)nc2c1,5.67%
14,COc1cc(NC(=O)CCc2c(C)n(C)c3cc(-c4ccccc4C)nn3c2=O)cc(OC)c1OC,3.33%
15,O=C(CN1C(=O)CSc2ccc(S(=O)(=O)N3CCCCC3)cc21)NCc1ccc(F)cc1Cl,-3.62%
16,O=C(NCc1ccco1)c1ccc2c(c1)N(Cc1ccc(F)cc1)C(=O)c1ccccc1S2=O (stereo unspecified),-6.91%
17,COc1ccc(OC)c(CNc2nc3ccccc3n2CCN2CCCCC2)c1,active: 33.5%
18,CCOc1ccccc1NC(=O)c1sc2nc3c(cc2c1N)CN(Cc1ccccc1)CC3,16.7%
19,CCc1nnc(NC(=O)c2nc(S(C)(=O)=O)ncc2Cl)s1,-5.32%
